In the supplement of paper PMC3334620:
In all, about 33,000 sequences were measured (“E-score (-0.5 to 0.5)”: median about -0.011, highest 2% from about 0.28 on). Some of the results follow.

Molecular target: T1, Gcr1 (UniProt P07261)
T1 sequence: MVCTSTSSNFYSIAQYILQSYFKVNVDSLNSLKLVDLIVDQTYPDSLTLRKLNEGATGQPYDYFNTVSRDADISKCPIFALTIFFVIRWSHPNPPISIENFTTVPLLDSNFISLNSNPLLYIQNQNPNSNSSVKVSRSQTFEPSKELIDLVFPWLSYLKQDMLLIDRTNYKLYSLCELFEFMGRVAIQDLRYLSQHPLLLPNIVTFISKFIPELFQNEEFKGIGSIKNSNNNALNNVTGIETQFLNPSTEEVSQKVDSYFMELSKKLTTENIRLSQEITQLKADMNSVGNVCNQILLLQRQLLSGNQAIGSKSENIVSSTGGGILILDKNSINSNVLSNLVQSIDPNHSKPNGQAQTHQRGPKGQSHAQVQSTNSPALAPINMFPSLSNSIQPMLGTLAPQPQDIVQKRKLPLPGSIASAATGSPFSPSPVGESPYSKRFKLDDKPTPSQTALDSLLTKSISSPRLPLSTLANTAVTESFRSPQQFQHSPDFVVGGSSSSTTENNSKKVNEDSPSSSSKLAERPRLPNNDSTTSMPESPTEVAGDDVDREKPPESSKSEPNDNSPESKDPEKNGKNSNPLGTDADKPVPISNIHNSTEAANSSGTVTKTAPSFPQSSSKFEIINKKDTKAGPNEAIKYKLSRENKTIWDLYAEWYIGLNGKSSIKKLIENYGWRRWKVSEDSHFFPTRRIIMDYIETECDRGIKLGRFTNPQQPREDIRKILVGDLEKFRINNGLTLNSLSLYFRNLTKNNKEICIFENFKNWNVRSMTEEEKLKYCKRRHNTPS
Assay: PBM E-score (8-mer binding enrichment) (E-score (-0.5 to 0.5)); higher = stronger / more preferred TF binding; most listed sequences are background and not binding sites
Conditions: protein concentration: 100 nM; construct: GST-full length
Summary of the method: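 GST-tagged yeast TFs (full-length or DNA-binding domain) were made by PURExpress in vitro transcription/translation and applied at about 100-200 nM to universal all-10-mer Agilent arrays. The arrays were made double-stranded by primer extension, on fresh or once-stripped slides. Bound protein was detected with fluorescent anti-GST, and scans were normalised with masliner. Each ungapped eight-base word, pooled with its reverse complement, received an E-score (modified Wilcoxon-Mann-Whitney statistic) from the Universal PBM Analysis Suite.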

| Sequence | PBM E-score |
| --- | --- |
| CCGACTCG | -0.102 |
| AGATTTGG | 0.0673 |
| TACATCAA | 0.136 |
| AAGCGGCG | 0.193 |
| AATTCTGC | 0.109 |
| GAGTGGGC | -0.0425 |
| CTATTGCC | -0.193 |
| GCAGAGCC | -0.26 |
| AACACTGA | -0.0184 |
| CACGCTAG | -0.106 |
| ACTCCATG | -0.00702 |
| CCGAAACC | -0.0279 |
| AGAATCAA | 0.169 |
| AACGGAAG | 0.266 |
| CCGTTCAA | -0.17 |
| GTAATCCA | 0.154 |
| CGGCGTGC | -0.094 |
| GGGCTAAC | -0.244 |
| AACTCATC | -0.0389 |
| AGCTTGTG | 0.00924 |
| GTTGCCCA | 0.146 |
| GGATCCCC | 0.362 |
| CATCTGCA | -0.131 |
| CTTGGCCC | 0.0663 |
| GTGCTACA | -0.119 |

| Sequence | PBM E-score |
| --- | --- |
| CGCGAATC | 0.0843 |
| ACCAAGAA | 0.0619 |
| AAGTAGTA | 0.0545 |
| ATACTCCC | -0.0419 |
| AGGGAGAC | -0.17 |
| CCTCTGGC | 0.0297 |
| ACGTGGAA | 0.0214 |
| ATTTAGCA | 0.115 |
| TAGCAGAA | 0.11 |
| AGGATGAG | -0.056 |
| TTCGAAAA | 0.0588 |
| AGGTTTAA | 0.0624 |
| CCGGCGAG | -0.161 |
| GAGGGAGC | -0.0814 |
| CGTCAGTA | -0.17 |
| AAAACGAG | -0.0573 |
| ACTGCTTG | -0.151 |
| ACTACAGA | 0.0743 |
| ATCCCCTG | 0.01 |
| TGATATAA | -0.249 |
| CACGTCCA | -0.0463 |
| AGACCTGA | -0.0403 |
| TCCTTAGA | 0.0718 |
| CAGCCGAC | -0.163 |
| ATTAGTTA | 0.102 |

| Sequence | PBM E-score |
| --- | --- |
| AAGCCATC | -0.143 |
| ATGCTGAA | 0.0622 |
| GTCATCAC | -0.247 |
| GCCTCTCC | 0.0384 |
| AATATTAG | 0.0775 |
| ATCGCGCA | -0.0489 |
| GAACACAA | -0.0332 |
| AGCGCACG | -0.108 |
| ACAGTAGG | -0.0472 |
| TAGGGAGA | 0.026 |
| AGGCGTGC | -0.044 |
| AGACTATC | -0.146 |
| ATTCAGTG | 0.0914 |
| CACTGACC | -0.258 |
| GTAACAAA | -0.00252 |
| CTCTCAAC | 0.0891 |
| GCCTCTTA | 0.0777 |
| CTTCGGTA | -0.00892 |
| AGTTCGAA | -0.0147 |
| CGTGAACC | -0.103 |
| ACCTCACG | -0.0561 |
| GGTATCGA | 0.00098 |
| CTAATGCC | 0.0499 |
| AGAGGATG | 0.315 |
| AACACAGG | 0.094 |

| Sequence | PBM E-score |
| --- | --- |
| CATATAAG | 0.0899 |
| ACCGTATC | -0.0123 |
| CTTCGCTA | -0.0659 |
| AGACAAAT | 0.0622 |
| TCAGAGAA | 0.0257 |
| AGGCTAAG | -0.203 |
| CGATTACC | -0.159 |
| GGTCGCAC | -0.221 |
| CGACAACA | 0.00406 |
| ATTTTCCA | 0.122 |
| CATTGACC | -0.187 |
| ACTTCCAT | 0.145 |
| GGGTCCTA | 0.211 |
| AATACCGC | 0.118 |
| CCACTAGG | 0.287 |
| CTTCATAA | 0.108 |
| GTATCCGA | 0.208 |
| GAAGTCGC | 0.182 |
| CCACGGAA | 0.127 |
| ACGCCTTA | -0.0684 |
| GAGAAGCC | 0.395 |
| TGCCCGAA | 0.0317 |
| GCTGTGCC | -0.187 |
| CCAATAAG | 0.0215 |
| GAGCTACC | 0.163 |

| Sequence | PBM E-score |
| --- | --- |
| GCCTGTCA | 0.0994 |
| CCTCTGGA | 0.00889 |
| ACATAAGG | 0.0545 |
| ATCGGAAT | 0.105 |
| CGCGCATA | -0.164 |
| AGGAACCG | 0.139 |
| CACGCGAC | -0.0568 |
| GGACGGTA | 0.0246 |
| AGGACGAT | -0.125 |
| AGAGCGCT | -0.0601 |
| ATCCGACG | -0.15 |
| GGTTACTA | 0.0616 |
| AACACATC | 0.03 |
| ACACCCTA | -0.021 |
| AAGCAACC | 0.0616 |
| CCGCAGCC | 0.223 |
| AGTTGAAG | 0.0719 |
| CACATAAC | -0.154 |
| AACTGACG | -0.0047 |
| CCGTTCGC | -0.227 |
| AAGAGATT | 0.08 |
| TAAGGCTA | -0.0707 |
| AAGCAATG | -0.12 |
| CCTTTAAA | 0.0787 |
| ACGTAAAA | 0.207 |

| Sequence | PBM E-score |
| --- | --- |
| GCGACGAA | -0.0345 |
| CCCTTGTC | -0.167 |
| ATAGTGCC | -0.155 |
| GGAGATAA | -0.0396 |
| ACCTTACA | 0.156 |
| CCGCACGC | -0.109 |
| GCATCCGC | 0.251 |
| ACGCCTGC | -0.0545 |
| CCTTTTGC | -0.0203 |
| ACTTTAAG | 0.106 |
| GGTCAAAC | -0.054 |
| CCCTCGCA | -0.0325 |
| GTCGGAAC | -0.0752 |
| GCTCAGAA | -0.0813 |
| GCAACTGA | -0.162 |
| GGGATAAA | -0.0224 |
| ACACGCAG | 0.323 |
| GCTCCTAA | 0.144 |
| AGGATCCC | 0.379 |
| CTTCCAGA | 0.341 |
| CGGCGTAA | 0.0298 |
| CTCATACA | -0.274 |
| AATTCCAA | 0.308 |
| TATTAGGA | 0.262 |
| ATCGGCCC | -0.212 |

| Sequence | PBM E-score |
| --- | --- |
| AAACAGAA | 0.22 |
| CCTCACTA | -0.115 |
| CGACAGCA | -0.211 |
| GTCGCATA | 0.0683 |
| GACATGCA | 0.028 |
| ATGGGTCG | 0.0409 |
| GCATGTGA | -0.287 |
| ACTGGCAG | 0.17 |
| GATCTCGA | 0.0386 |
| AGATACAG | 0.0131 |
| ACCTGAGT | -0.167 |
| CGACCTTC | -0.176 |
| AGGCCTTC | -0.146 |
| CCTTTGGA | 0.0993 |
| ATTACTTC | -0.0314 |
| AGTCCCCC | -0.159 |
| AGAAGAAT | 0.119 |
| CACTCACC | -0.104 |
| AAGGCTCT | -0.187 |
| ATGTCCCC | -0.0406 |
| AGCCCATG | -0.0306 |
| AGTCTCGG | -0.201 |
| ATGGCATA | -0.165 |
| CTCTTAAA | 0.0108 |
| CTTATATC | 0.0695 |

| Sequence | PBM E-score |
| --- | --- |
| CCTAATCA | 0.211 |
| AGATCCCC | 0.156 |
| AGGATAGA | 0.05 |
| ATACTGCA | 0.0345 |
| CAGATCAG | -0.144 |
| CGCCACTC | 0.0754 |
| ACTGGATC | 0.316 |
| AGCCCTAA | 0.0796 |
| ACACACGA | 0.0479 |
| CTATCCAC | 0.0657 |
| CGACTATA | 0.0834 |
| GAGGTGCA | -0.125 |
| AGAGAAAT | 0.0413 |
| AAACGTGG | 0.0189 |
| AGATAATA | 0.0377 |
| AAATGAAT | -0.0755 |
| CGTTCCTA | 0.15 |
| AAAGCGCC | 0.0699 |
| ACCTTGAC | -0.0262 |
| ACATCCTC | 0.0229 |
| ATCTCACC | -0.129 |
| TAATGGCA | 0.295 |
| CTCTTGCA | -0.139 |
| TTGGCAAA | -0.142 |
| CGGCCAAG | -0.27 |

| Sequence | PBM E-score |
| --- | --- |
| GGGTAGAC | -0.115 |
| CTAGTCAA | -0.198 |
| ACCATGAT | -0.223 |
| CCATTGCC | -0.252 |
| CCGAATCC | 0.133 |
| CCGATGAG | -0.151 |
| GGTGTGTA | 0.0291 |
| GCTCAAGA | 0.0121 |
| CTGTATTC | 0.124 |
| AGTCTCCA | 0.0915 |
| CTCCGCGA | 0.0908 |
| CGCTCGCC | 0.0134 |
| CAGGACGG | -0.182 |
| ACAGTGCT | -0.124 |
| ATCTCAAT | 0.0778 |
| ACGCTAAT | 0.0647 |
| AATATACA | -0.0364 |
| GGTGGTGA | 0.0438 |
| CGTGTTCA | -0.0157 |
